# Measurements reported in the supplement of paper PMC8728848.
# The other results are listed elsewhere or left out.
# B1: Gal 4 (Mus musculus), P56470 (protein)
# chain: MAYVPAPGYQPTYNPTLPYYQPIPGGLNVGMSVYIQGVASEHMKRFFVNFVVGQDPGSDVAFHFNPRFDGWDKVVFNTLQGGKWGSEERKRSMPFKKGAAFELVFIVLAEHYKVVVNGNPFYEYGHRLPLQMVTHLQVDGDLQLQSINFIGGQPLRPQGPPMMPPYPGPGHCHQQLNSLPTMEGPPTFNPPVPYFGRLQGGLTARRTIIIKGYVPPTGKSFAINFKVGSSGDIALHINPRMGNGTVVRNSLLNGSWGSEEKKITHNPFGPGQFFDLSIRCGLDRFKVYANGQHLFDFAHRLSAFQRVDTLEIQGDVTLSYVQI
# Experiments:
# Test in all cases: glycan array binding signal (z-score within array); higher = stronger binding
# Settings in all cases: glycan notation: IUPAC condensed, linker removed
# [1] = biological target: Neu5Ac(a2-3)Gal(b1-4)GlcNAc(b1-2)[Neu5Ac(a2-3)Gal(b1-4)GlcNAc(b1-4)]Man(a1-3)[GlcNAc(b1-4)][Neu5Ac(a2-3)Gal(b1-4)GlcNAc(b1-2)[Neu5Ac(a2-3)Gal(b1-4)GlcNAc(b1-6)]Man(a1-6)]Man(b1-4)GlcNAc(b1-4)GlcNAc
# In short: (§1)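 From the Consortium for Functional Glycomics database, 3228 arrays were curated, keeping only those whose protein sequence was available. Binding is given as a within-array Z-score averaged across arrays sharing a protein sequence and across linkers. Negative Z-scores can be read as non-binding.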
# [2] = biological target: Neu5Ac(a2-3)Gal(b1-4)GlcNAc(b1-2)[Neu5Ac(a2-3)Gal(b1-4)GlcNAc(b1-4)]Man(a1-3)[GlcNAc(b1-4)][Neu5Ac(a2-3)Gal(b1-4)GlcNAc(b1-4)Man(a1-6)]Man(b1-4)GlcNAc(b1-4)GlcNAc
# In short: as §1
# [3] = biological target: Neu5Ac(a2-3)Gal(b1-4)GlcNAc(b1-2)[Neu5Ac(a2-3)Gal(b1-4)GlcNAc(b1-6)]Man(a1-6)[Neu5Ac(a2-3)Gal(b1-4)GlcNAc(b1-2)Man(a1-3)]Man(b1-4)GlcNAc(b1-4)GlcNAc
# In short: as §1
# [4] = biological target: Neu5Ac(a2-3)Gal(b1-4)GlcNAc(b1-2)[Neu5Ac(a2-3)Gal(b1-4)GlcNAc(b1-6)]Man(a1-6)[Neu5Ac(a2-3)Gal(b1-4)GlcNAc(b1-2)Man(a1-3)][GlcNAc(b1-4)]Man(b1-4)GlcNAc(b1-4)GlcNAc
# In short: as §1
# [5] = biological target: Neu5Ac(a2-3)Gal(b1-4)GlcNAc(b1-3)Gal
# In short: as §1
# [6] = biological target: Neu5Ac(a2-3)Gal(b1-4)GlcNAc(b1-3)Gal(b1-3)GlcNAc
# In short: as §1
# [7] = biological target: Neu5Ac(a2-3)Gal(b1-4)GlcNAc(b1-3)Gal(b1-4)GlcNAc
# In short: as §1
# [8] = biological target: Neu5Ac(a2-3)Gal(b1-4)GlcNAc(b1-3)Gal(b1-4)GlcNAc(b1-2)Man(a1-3)[Neu5Ac(a2-3)Gal(b1-4)GlcNAc(b1-3)Gal(b1-4)GlcNAc(b1-2)Man(a1-6)]Man(b1-4)GlcNAc(b1-4)GlcNAc
# In short: as §1
# [9] = biological target: Neu5Ac(a2-3)Gal(b1-4)GlcNAc(b1-3)Gal(b1-4)GlcNAc(b1-3)Gal(b1-4)GlcNAc
# In short: as §1
# [10] = biological target: Neu5Ac(a2-3)Gal(b1-4)GlcNAc(b1-3)Gal(b1-4)GlcNAc(b1-3)Gal(b1-4)GlcNAc(b1-2)Man(a1-3)[Neu5Ac(a2-3)Gal(b1-4)GlcNAc(b1-3)Gal(b1-4)GlcNAc(b1-3)Gal(b1-4)GlcNAc(b1-2)Man(a1-6)]GalNAc
# In short: as §1
# [11] = biological target: Neu5Ac(a2-3)Gal(b1-4)GlcNAc(b1-3)Gal(b1-4)GlcNAc(b1-3)GalNAc
# In short: as §1
# [12] = biological target: Neu5Ac(a2-3)Gal(b1-4)GlcNAc(b1-3)Gal(b1-4)GlcNAc(b1-3)[Neu5Ac(a2-3)Gal(b1-4)GlcNAc(b1-3)Gal(b1-4)GlcNAc(b1-6)]GalNAc
# In short: as §1
# [13] = biological target: Neu5Ac(a2-3)Gal(b1-4)GlcNAc(b1-3)Gal(b1-4)GlcNAc(b1-6)[Gal(b1-3)]GalNAc
# In short: as §1
# [14] = biological target: Neu5Ac(a2-3)Gal(b1-4)GlcNAc(b1-3)Gal(b1-4)[Fuc(a1-3)]GlcNAc
# In short: as §1
# [15] = biological target: Neu5Ac(a2-3)Gal(b1-4)GlcNAc(b1-3)GalNAc
# In short: as §1
# [16] = biological target: Neu5Ac(a2-3)Gal(b1-4)GlcNAc(b1-3)[Neu5Ac(a2-3)Gal(b1-4)GlcNAc(b1-6)]GalNAc
# In short: as §1
# [17] = biological target: Neu5Ac(a2-3)Gal(b1-4)GlcNAc(b1-6)GalNAc
# In short: as §1
# [18] = biological target: Neu5Ac(a2-3)Gal(b1-4)GlcNAc(b1-6)[Gal(b1-3)]GalNAc
# In short: as §1
# [19] = biological target: Neu5Ac(a2-3)Gal(b1-4)GlcNAc(b1-6)[Neu5Ac(a2-3)Gal(b1-3)]GalNAc
# In short: as §1
# [20] = biological target: Neu5Ac(a2-3)Gal(b1-4)GlcNAc6S
# In short: as §1
# [21] = biological target: Neu5Ac(a2-3)Gal(b1-4)[Fuc(a1-3)]GlcNAc
# In short: as §1
# [22] = biological target: Neu5Ac(a2-3)Gal(b1-4)[Fuc(a1-3)]GlcNAc(b1-2)Man
# In short: as §1
# [23] = biological target: Neu5Ac(a2-3)Gal(b1-4)[Fuc(a1-3)]GlcNAc(b1-3)Gal
# In short: as §1
# [24] = biological target: Neu5Ac(a2-3)Gal(b1-4)[Fuc(a1-3)]GlcNAc(b1-3)Gal(b1-4)GlcNAc
# In short: as §1
# [25] = biological target: Neu5Ac(a2-3)Gal(b1-4)[Fuc(a1-3)]GlcNAc(b1-3)Gal(b1-4)[Fuc(a1-3)]GlcNAc(b1-3)Gal(b1-4)[Fuc(a1-3)]GlcNAc
# In short: as §1
# [26] = biological target: Neu5Ac(a2-3)Gal(b1-4)[Fuc(a1-3)]GlcNAc(b1-3)GalNAc
# In short: as §1
# [27] = biological target: Neu5Ac(a2-3)Gal(b1-4)[Fuc(a1-3)]GlcNAc(b1-6)[Gal(b1-3)]GalNAc
# In short: as §1
binder,measurement,setting,value
B1,glycan array binding signal (z-score),[1],-0.34
same,glycan array binding signal (z-score),[2],-0.277
same,glycan array binding signal (z-score),[3],-0.196
same,glycan array binding signal (z-score),[4],-0.338
same,glycan array binding signal (z-score),[5],-0.249
same,glycan array binding signal (z-score),[6],-0.231
same,glycan array binding signal (z-score),[7],-0.249
same,glycan array binding signal (z-score),[8],-0.271
same,glycan array binding signal (z-score),[9],-0.231
same,glycan array binding signal (z-score),[10],-0.219
same,glycan array binding signal (z-score),[11],-0.309
same,glycan array binding signal (z-score),[12],-0.262
same,glycan array binding signal (z-score),[13],-0.31
same,glycan array binding signal (z-score),[14],-0.232
same,glycan array binding signal (z-score),[15],-0.249
same,glycan array binding signal (z-score),[16],-0.261
same,glycan array binding signal (z-score),[17],-0.314
same,glycan array binding signal (z-score),[18],-0.228
same,glycan array binding signal (z-score),[19],-0.233
same,glycan array binding signal (z-score),[20],-0.234
same,glycan array binding signal (z-score),[21],-0.235
same,glycan array binding signal (z-score),[22],-0.297
same,glycan array binding signal (z-score),[23],-0.242
same,glycan array binding signal (z-score),[24],-0.188
same,glycan array binding signal (z-score),[25],-0.237
same,glycan array binding signal (z-score),[26],-0.131
same,glycan array binding signal (z-score),[27],-0.204
